Measured values: publication PMC12040169 (PLOS Biology, 2025)
The list shows a part of the results.

Each compound was assayed on T1, C. trachomatis L2/434/Bu expressing GFP (CTL2-GFP). Conditions: total inclusion area; 28.5 h, 10 µM; inhibitor.
T1 construct: L2/434/Bu GFP intracellular growth in HeLa cells
Design: species or system HeLa; C. trachomatis total inclusion area by high-content imaging, normalised to DMSO
Summary of the method: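 Post-fluorescence-read fixation, DNA staining with Hoechst and high-content imaging; GFP inclusion area and number per well, and nuclei counts, used as proxies for bacterial growth and host viability.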
In the case of `Cc1cn(CC(=O)N2CCCC3(CCN(C(=O)c4ccoc4)C3)C2)c(=O)[nH]c1=O` (stereo not drawn) [CBK131634], the “% of control remaining” value is reported as 79.7243.
`Cn1ccnc1C1(O)CCN(C(=O)c2cc(F)cc(F)c2)CC1` [CBK283544] was tested, and the “% of control remaining” value was 71.9298.
For `Cc1ccc(-c2noc([C@@H]3Cc4[nH]cnc4CN3C(=O)CCC(=O)O)n2)cc1` [CBK288958], the “% of control remaining” value was 105.708.
In the case of `COc1ccc(S(=O)(=O)N(C)CC(=O)N2CCOCC2)cc1C` [CBK267898], the “% of control remaining” value is reported as 102.981.
For `O=C(O)CCc1ccc(S(=O)(=O)Nc2ccccc2Cc2ccccc2)cc1` [CBK295616], the “% of control remaining” value was 105.12.
`Cc1nn(C)c(C)c1CCC(=O)NCC1CCN(c2ccccc2F)C1` (stereo not drawn) [CBK304357] was tested, and the “% of control remaining” value was 94.2438.
In the case of `Oc1c(C(Nc2cccnc2)c2cccs2)ccc2cccnc12` (stereo not drawn) [CBK268637], the “% of control remaining” value is reported as 24.8575.
`CC(=O)N1CCC(C(=O)NC(=O)Nc2ccccc2F)CC1` [CBK034848] was tested, and the “% of control remaining” value was 81.0654.
In the case of `CCN(CC)CCN1CCN(c2cc(-c3ccc4c(c3)OCO4)ncn2)CC1` [CBK037694], the “% of control remaining” value is reported as 99.5818.
For `c1cnc(OC2CCN(CC3CCCCC3)CC2)c(OCCN2CCOCC2)n1` [CBK082941T], the “% of control remaining” value was 90.738.
In the case of `COc1ccc(-c2cc(C(=O)Nc3nccs3)cnc2-c2ccc(Cl)cc2)cc1` [CBK037553], the “% of control remaining” value is reported as 145.493.
With `O=C1CNC(=O)C2(C/C=C/C[C@H]3COCC[C@@H]3N1)CCN(C(=O)CCc1cccnc1)CC2` [CBK292051] the “% of control remaining” value was 103.345.
For `C[C@@H]1[C@H](c2ccccc2)OC(=O)N1C1CCN(S(=O)(=O)c2cccs2)CC1` [CBK043302], the “% of control remaining” value was 95.1596.
In the case of `CC(CN1CCCC1)NC(=O)c1ccc2c(c1)ncn2C` (stereo not drawn) [CBK281715], the “% of control remaining” value is reported as 88.6307.
With `COc1ccc([C@@]23CC[C@@H](Nc4nc(-c5ccc(Br)cc5)cs4)C[C@@H]2N(C)CC3)cc1OC` [CBK036543] the “% of control remaining” value was 15.0916.
With `CC(C)[C@@H](CO)Nc1cncc(-c2cccc(CO)c2)n1` [CBK065427] the “% of control remaining” value was 115.811.
`CNC(=O)c1cc(S(=O)(=O)N(C2CC2)C2CCc3ccccc32)cn1C` (stereo not drawn) [CBK305988] was tested, and the “% of control remaining” value was 7.013.
With `O=C(O)C1CSC(c2ccc([N+](=O)[O-])cc2)N1` (stereo not drawn) [CBK260909] the “% of control remaining” value was 94.4334.
`COc1cncc(-c2cncc(Nc3ccccc3)n2)c1` [CBK065435] was tested, and the “% of control remaining” value was 97.689.
In the case of `CC1CC1c1nnc(C2(c3ccc(Br)cc3)CCOCC2)o1` (stereo not drawn) [CBK304712], the “% of control remaining” value is reported as 65.163.
In the case of `COc1ccc(F)cc1-c1ccc(CC2(C(=O)NCc3cccs3)CCOCC2)cc1` [CBK285540], the “% of control remaining” value is reported as 80.686.
With `Cn1nc2n(C)c(=O)c3ccc(C(=O)NC4CCCC4)cc3n2c1=O` [CBK287811] the “% of control remaining” value was 87.2368.
With `Nc1ncc(-c2ccc(C(F)(F)F)cc2)c(C2CCCN(C(=O)C3CCCCC3)C2)n1` (stereo not drawn) [CBK285791] the “% of control remaining” value was 98.3948.
`O=C(Nc1c(F)cccc1F)N(Cc1ccc2ccccc2c1)CC1CCNCC1` [CBK119480] was tested, and the “% of control remaining” value was 98.8537.
For `O=C(NNC(=O)C1CCN(S(=O)(=O)c2ccc(Br)cc2)CC1)NC12CC3CC(CC(C3)C1)C2` [CBK266907], the “% of control remaining” value was 102.634.
In the case of `N=C(N)NC(=N)Nc1ccc2c(c1)OCCO2` [CBK021572C], the “% of control remaining” value is reported as 113.219.
`Nc1ncc(-c2ccccc2O)nc1-c1ccc(O)cc1` [CBK115548] was tested, and the “% of control remaining” value was 121.554.
With `Cc1ccc(CNC(=O)C2CCN(S(=O)(=O)N3CCOCC3)CC2)cc1` [CBK294467] the “% of control remaining” value was 94.4048.
With `O=C(CCC(=O)c1ccccc1)Nc1cc2ccccc2c(N2CCNCC2)n1` [CBK028418T] the “% of control remaining” value was 95.3076.
For `Cn1c(=O)n(C)c2cc(CNc3nn[nH]n3)ccc21` [CBK270243], the “% of control remaining” value was 88.7875.
In the case of `CCOc1ccc2c(c1)cc(C(=O)N(C)CC(F)(F)F)n2C` [CBK281509], the “% of control remaining” value is reported as 104.473.
In the case of `C=CCOc1ccc(-c2nc3s/c(=C4\C(=O)N(Cc5ccccc5F)c5ccccc54)c(=O)n3n2)cc1` [CBK266615], the “% of control remaining” value is reported as 96.9245.
With `O=C(Nc1cccc2nsnc12)c1ccc(-c2ccc(Br)cc2)o1` [CBK263752] the “% of control remaining” value was 80.7056.
In the case of `CN(c1ccc(C(O)(C(F)(F)F)C(F)(F)F)cc1)S(=O)(=O)c1cccs1` [CBK067061], the “% of control remaining” value is reported as 91.714.
With `CC(=O)NC[C@H]1CN(c2ccc(C#N)c(C)c2)C(=O)O1` [CBK010393] the “% of control remaining” value was 39.062.
With `O=C(NCCc1ccc(F)cc1)C1CN(C(=O)c2ccc3nsnc3c2)C1` [CBK285690] the “% of control remaining” value was 114.792.
`C[C@H](C(=O)N1CCCC1)C1CC[C@@]2(C)Cc3sc(NC(=O)C4CC4)nc3[C@@H](C)[C@@H]2[C@H]1O` (stereo partly drawn) [CBK289432] was tested, and the “% of control remaining” value was 105.99.
In the case of `OC(CNc1nccnc1-c1ccsc1)COc1ccccc1` (stereo not drawn) [CBK037057], the “% of control remaining” value is reported as 94.1154.
In the case of `COc1ccc(CNC(=O)C2CCCN(c3nc4c(-c5ccc(C)cc5)csc4c(=O)[nH]3)C2)cc1` (stereo not drawn) [CBK215530], the “% of control remaining” value is reported as 87.3238.
With `c1cnn(CC2CCCN2c2ncnc3sccc23)c1` (stereo not drawn) [CBK304968] the “% of control remaining” value was 49.0452.
`CCCCNc1nnc(-c2cc(C)nn2C)s1` [CBK288019] was tested, and the “% of control remaining” value was 97.1777.
In the case of `Cc1cc(NCC2(CO)CCOCC2)nc(N2CCCC2)n1` [CBK307005], the “% of control remaining” value is reported as 35.6097.
`O=c1c2ccccc2c(-c2ccc(Cl)cc2)nn1-c1cc(N2CCNCC2)ccc1[N+](=O)[O-]` [CBK265763] was tested, and the “% of control remaining” value was 112.316.
For `COc1cc(-c2nc(-c3ccc(Cl)cc3)c(-c3ccccc3)[nH]2)c([N+](=O)[O-])cc1OC` [CBK264503], the “% of control remaining” value was 102.985.
With `CCc1nc2ccccc2c(NC(=O)CN2CCCCCC2)c1C` [CBK261580G] the “% of control remaining” value was 97.0253.
`COc1ccc([C@@]23CC[C@H](NC(=O)Nc4ccc(F)c(F)c4)C[C@@H]2N(Cc2ccccc2)CC3)cc1OC` [CBK041333T] was tested, and the “% of control remaining” value was 39.9104.
In the case of `O=C(NCCC1SC(NC2CC3C=CC2C3)=NC1=O)c1ccccc1Cl` (stereo not drawn) [CBK200062], the “% of control remaining” value is reported as 84.2435.
`NC(=O)NC(Cc1c[nH]c2ccccc12)C(=O)O` (stereo not drawn) [CBK218895] was tested, and the “% of control remaining” value was 114.887.
With `COc1ccc(NC(=O)Nc2ccccc2C(N)=O)cc1OC` [CBK267061] the “% of control remaining” value was 118.207.
In the case of `C=CCC1c2cccc(C(=O)O)c2C(=O)N1c1ccc(F)cc1` (stereo not drawn) [CBK113158], the “% of control remaining” value is reported as 89.8179.
In the case of `CCOC(=O)N1CCN(C(C(=O)O)c2c[nH]c3ccc(C)cc23)CC1` (stereo not drawn) [CBK286632], the “% of control remaining” value is reported as 90.0962.
For `CN(C)Cc1cc(-c2ccc(CNC(=O)C3CC3)cc2)nn1C` [CBK283470], the “% of control remaining” value was 80.3218.
`N#Cc1c(F)cccc1NCc1cccnc1` [CBK057053] was tested, and the “% of control remaining” value was 76.5475.
`O=C(CN1CCN(C(c2ccccc2)c2ccccc2)CC1)Nc1c2c(nc3ccccc13)CCC2` [CBK278299G] was tested, and the “% of control remaining” value was 115.515.
`CSCCC(NC(=O)C1CCC(C)CC1)C(=O)O` (stereo not drawn) [CBK286552] was tested, and the “% of control remaining” value was 86.9978.
In the case of `O=C(O)c1nnn(-c2ccccc2)c1-c1ccncc1` [CBK288041], the “% of control remaining” value is reported as 89.1076.
`CN(Cc1nc(-c2ccccc2)no1)C(=O)C1CC2(CCNCC2)CN1` (stereo not drawn) [CBK306585] was tested, and the “% of control remaining” value was 89.2397.
In the case of `CN(C)C(CNC(=O)Nc1cccc(C(=O)NC2CC2)c1)c1cccs1` (stereo not drawn) [CBK305565], the “% of control remaining” value is reported as 54.4962.
`CC(C)Nc1nccnc1Sc1cccs1` [CBK089490] was tested, and the “% of control remaining” value was 99.3143.
For `CCCC/C=C/c1cnc(N)c(-c2cccc(N)c2)n1` [CBK063954], the “% of control remaining” value was 126.307.
For `CC(C)(C)C1=CC2=NC3(CCC3)C3C[C@@H](O)[C@@H](O)[C@]3(COCc3ccccc3)N2O1` (stereo partly drawn) [CBK303260], the “% of control remaining” value was 91.4182.
`Cc1cccc(C)c1NC(=O)CN1CCCN(c2cc(OCCN3C(=O)CCC3=O)ncn2)CC1` [CBK083313T] was tested, and the “% of control remaining” value was 109.501.
`COc1ccc(OCc2nc3ccccc3[nH]2)cc1` [CBK261030] was tested, and the “% of control remaining” value was 100.973.
For `c1ccc(CN2CC[C@H](c3nc4ncccc4[nH]3)C2)cc1` [CBK289383], the “% of control remaining” value was 94.2816.
With `Cc1cc(/C=C2\NC(=O)NC2=O)c(C)n1-c1ccc(OCc2ccccc2F)cc1` [CBK264842] the “% of control remaining” value was 112.009.
With `O=C(O)CCC(=O)NCC1(c2ccccc2)CCCC1` [CBK286679] the “% of control remaining” value was 60.8652.
`Cc1nc2c(c(=O)[nH]1)CC[C@@H]1CN(C(=O)Cc3ccsc3)C[C@H]21` [CBK284411] was tested, and the “% of control remaining” value was 63.1536.
With `O=C(N/N=C/C=C/c1ccc([N+](=O)[O-])cc1)C(O)c1ccccc1` (stereo not drawn) [CBK261373] the “% of control remaining” value was 111.309.
With `CC(C)(c1ccccc1)c1ccc(OCCCCn2cncn2)cc1` [CBK266405] the “% of control remaining” value was 74.5977.
`Cc1cc(Cl)ccc1NC(=O)CN1CCN(Cc2ccccc2)CC1` [CBK269438] was tested, and the “% of control remaining” value was 45.9458.
`Cn1ccnc1C1(O)CC2CCC(C1)N2C(=O)c1ccc(Cl)cc1` (stereo not drawn) [CBK284087] was tested, and the “% of control remaining” value was 97.8621.
In the case of `O=C(CCCn1ccnc1)NCC1(c2cccc(F)c2)CCCC1` [CBK281500], the “% of control remaining” value is reported as 78.2203.
`Cc1cc(CNC(=O)C2(c3ccccc3)CCCC2)no1` [CBK149518] was tested, and the “% of control remaining” value was 94.8815.
With `Nc1ncc2ncn([C@H]3C[C@@H](O)[C@@H](CO)O3)c2n1` [CBK201303] the “% of control remaining” value was 98.5294.
In the case of `CCN1C(=O)C2(CC(=O)N(CCCCC(C)C)C2=O)c2cc(C)ccc21` (stereo not drawn) [CBK075173], the “% of control remaining” value is reported as 95.7169.
With `O=C(COc1ccc(F)cc1)N1CCCC1c1cccc(Cc2ccccc2)n1` (stereo not drawn) [CBK286214] the “% of control remaining” value was 77.434.
For `CS(=O)(=O)c1ccc(-c2nc(N)cc3ccccc23)cc1` [CBK085724], the “% of control remaining” value was 84.4839.
For `Cc1cccc(C)c1OCC(=O)Nc1ccccc1C(=O)N1CCOCC1` [CBK270096], the “% of control remaining” value was 92.7458.
